For experiment [1], the system named is WT Mabs ATCC 19977. Briefly: Acute SCID mouse model of MABSC infection. The conditions noted are these: SCID mice; 200 mg/kg gavage; vs antibiotics alone.
Experiment [2] has as its system WT Mabs ATCC 19977. Briefly: Chronic SCID mouse model of MABSC infection. The conditions noted are these: SCID mice; 50 mg/kg gavage every other day for 28 d.

With `c1cc([C@H]2CC[C@]3(CC2)OO[C@]2(O3)C3CC4CC(C3)CC2C4)ccc1OCCN1CCOCC1` [OZ439, artefenomel], the “adjunct efficacy in combination with antibiotics (AMK, AZI, IMI, CFZ)” value in the experiment on WT Mabs ATCC 19977 [1] is “potentiated the activity of AZI, IMI and CFZ in the spleen and/or lung”; with WT Mabs ATCC 19977 [2], “potentiated the activity of AZI in the liver and that of AMK in the lung and liver”.
